Measurements published in patent publication US20160250303A1, “PERFORIN-2 ACTIVATORS AND INHIBITORS AS DRUG TARGETS FOR INFECTIOUS DISEASE AND GUT INFLAMMATION” (UNIVERSITY OF MIAMI, priority 2013, published 2016).

System: P-2 mediated bacterial killing
Assay: Perforin-2 mediated killing of MRSA by BV2 phagocytic cells in vitro (FIG. 14c)
Conditions: phagocytic cell BV2, in vitro

**Q.** How did the “P-2 mediated bacterial killing” value turn out when `NS(=O)(=O)OC[C@@H]1CC(n2ccc3c(N[C@H]4CCc5ccccc54)ncnc32)C[C@@H]1O` (stereo partly shown) [MLN 4924] was run?
**A.** blocks P-2 mediated bacterial killing in vitro
